This is an account of results in PubChem BioAssay AID485344 (National Center for Advancing Translational Sciences (NCATS), 2010).

The campaign covered roughly 340,000 compounds. About 6,900 (2%) were called active. No stated cut-off is given here; in the data, active means inhibition above about 30%; inactive means below that, where a call was filed. The list shows a part of the results, in another mix than the full data. Where no call is shown, the source filed none.

The experiment deals with D(2) dopamine receptor (Homo sapiens) (UniProt P14416). Briefly: HTS Assay for Allosteric Antagonists of the Human D2 Dopamine Receptor: Primary Screen for Antagonists. Further: 0% is about no effect. Particulars: HEK293 TREx D2 cells, calcium flux, dopamine EC80; at 10 µM; stronger effect = higher value. In a few lines: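 Tetracycline-induced HEK293 T-REx cells expressing D2 force-coupled to calcium signalling were dye-loaded, exposed to compound for 180 s, then challenged with an EC80 of dopamine; calcium flux was followed kinetically for a further 180 s.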
Chain of UniProt P14416 (P14416 whole entry, looked up): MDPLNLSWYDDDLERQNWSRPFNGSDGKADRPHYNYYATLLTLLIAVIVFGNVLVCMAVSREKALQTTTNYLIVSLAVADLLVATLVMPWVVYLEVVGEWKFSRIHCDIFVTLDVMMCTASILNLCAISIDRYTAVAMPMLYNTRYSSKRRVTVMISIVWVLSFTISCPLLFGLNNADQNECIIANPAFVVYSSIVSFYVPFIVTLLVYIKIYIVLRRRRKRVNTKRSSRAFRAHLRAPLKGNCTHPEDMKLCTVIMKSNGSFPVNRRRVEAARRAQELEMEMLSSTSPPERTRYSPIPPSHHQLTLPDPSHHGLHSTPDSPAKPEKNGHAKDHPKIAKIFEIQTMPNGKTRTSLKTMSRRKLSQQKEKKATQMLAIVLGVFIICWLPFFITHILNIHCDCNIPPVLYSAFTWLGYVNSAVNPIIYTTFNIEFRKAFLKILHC
In general terms: A change in cytosolic calcium serves as a functional read-out for many receptors and channels.
As to `CCc1ccc(C2c3c(oc4ccc(F)cc4c3=O)C(=O)N2c2nc(C)c(C(=O)OC)s2)cc1` (stereo unspecified), the inhibition turned out to be 1.06%. As for `Cn1c(=O)c2c(nc(Oc3ccccc3)n2Cc2c(Cl)cccc2Cl)n(C)c1=O`, the inhibition was determined as 5.81%.

With `COc1ccc(N(CC(=O)Nc2cc(C)ccc2C)S(=O)(=O)c2ccc(OC)c(OC)c2)cc1`, the inhibition is -1.01%. `O=C(COc1ccccc1[N+](=O)[O-])Nc1cccc(-c2nc3ccccc3s2)c1`: the inhibition came to 3.29%. Turning to `COCCCNC(=O)CSc1nc2cc3c(cc2c(=O)n1CCCC(=O)NCc1ccc(OC)cc1)OCO3`, the inhibition came to 9.34%. On to `Cc1c(Cl)cccc1NC(=O)Nc1nnc(N(C)Cc2ccccc2)s1`, for which the inhibition is -2.85%. `CC1=C(C(=O)NCc2ccccc2C)C2(CCCCC2)OC1=O`: the inhibition is -16.7%.

Take `Cc1c(NC(=O)C(C)(C)Oc2ccc(Cl)cc2)cccc1-c1nc2ncccc2o1`: the inhibition was 13.3%. In the case of `CC(=O)c1ccc(NC(=O)Cn2cc(S(=O)(=O)Cc3ccccc3Cl)c3ccccc32)cc1` it was 0.728%; in that of `COc1ccc(Br)cc1C(=O)Nc1ccc(-c2nc3cc(Cl)ccc3o2)cc1`, 6.22%; in that of `Cc1c(NC(=O)c2cccc3c(Cl)cccc23)cccc1-c1nc2ccccc2o1`, 5.73%. Consider `O=C(CCS(=O)(=O)c1cc(Br)cc2c1N(C(=O)C1CC1)CC2)NCc1ccccc1Cl`, for which the inhibition is 11.5%. With `COC(=O)c1sccc1S(=O)(=O)N(CC(=O)Nc1c(C)cccc1C)c1ccc(C)c(C)c1` the figure was -0.401%. For the molecule `COc1ccc2c(c1)c(=O)c(S(=O)(=O)c1ccc(C)cc1)cn2Cc1ccccc1C`, the inhibition is -8.57%. Turning to `COC(=O)C(C)n1nnc2sc(-c3ccccc3)cc2c1=O` (stereo unspecified), the inhibition was 7.26%. As to `CC1CCN(CCCCOc2ccccc2[N+](=O)[O-])CC1`, the inhibition is active: 79.8%.

On to `CCOC(=O)N1CCc2c(sc3c2c(=O)n(Cc2ccccc2)c(=O)n3CC(=O)Nc2ccc(C)c(C)c2)C1`, for which the inhibition is 9.15%.

Take `CCC(C(=O)Nc1cc(F)ccc1F)n1nc(-c2cc(C)ccc2C)ccc1=O` (stereo unspecified): the inhibition was -14%.

As for `COc1ccc(NC(=O)c2c(NCc3sccc3C)sc3c2CCCCC3)c(OC)c1`, the inhibition was -26.6%. With `COC(=O)c1ccc(NC(=O)CSc2ncc3c(n2)-c2cc(Cl)ccc2N(Cc2ccccc2)S3(=O)=O)cc1`, the inhibition is 15.5%. Regarding `CCOc1ccc(CCNC(=O)c2ccc(CS(=O)Cc3cccc(Cl)c3)o2)cc1` (stereo unspecified), the inhibition is -6.91%. Turning to `COc1ccc(C)cc1NC(=O)Cn1c(=O)ccc2cc(S(=O)(=O)N3CCC(C)CC3)ccc21`, the inhibition was -15%.

For `Cc1ccc2c(=O)c(C(=O)c3ccc(Cl)cc3)cn(CC(=O)NC3CCCCC3)c2n1`, the inhibition amounted to 7.38%.

Turning to `CCC(C(=O)Nc1ccccc1OC)n1nc(C)c2sc3ccccc3c2c1=O` (stereo unspecified), the inhibition was -1.55%. Regarding `COc1ccc(OC)c(S(=O)(=O)N2c3ccccc3CC2C)c1` (stereo unspecified), the inhibition was active: 33%. With `Clc1ccccc1OCCCCN1CCCCC1` the figure was active: 76.6%; with `CCN(CCCNC(=O)CSc1cc(=O)n(CC)c2ccccc12)c1cccc(C)c1`, -24.2%. In the case of `Cc1ccc(NC(=O)c2c(C)oc3nc(C)nc(N4CCCC4)c23)c(C)c1` it was -14.8%; in that of `CC(Sc1cn(CCNC(=O)c2ccccc2F)c2ccccc12)c1ccccc1` (stereo unspecified), -0.0274%. With `O=C(NCCN1CCN(c2ccccc2)CC1)C1CCN(S(=O)(=O)c2cccc3nsnc23)CC1`, the inhibition is active: 55.5%. For the molecule `COc1ccc(NC(=O)CC2C(=O)N(c3ccc(F)cc3)C(=S)N2NC(=O)c2ccc(Cl)cc2)cc1` (stereo unspecified), the inhibition was active: 37.4%. For the molecule `Cc1ccc(S(=O)(=O)Nc2ccc3c(c2)nc(CN2CCCC2)n3C)cc1`, the inhibition is active: 71.6%.

Consider `COc1cc(C(=O)N2CCc3c([nH]c4ccccc34)C2c2ccc(C)cc2)cc(OC)c1OC` (stereo unspecified), for which the inhibition is -11.8%. Consider `Nc1c(-c2nc(-c3ccc4c(c3)OCO4)cs2)c2ccccn2c1C(=O)c1ccccc1`, for which the inhibition is 2.48%. With `CCCCn1c(NCc2cc(Cl)ccc2O)nc2ccccc21` the figure was -14.7%. Consider `CCOc1cc(C(=O)Nc2ccc([N+](=O)[O-])cn2)cc(OCC)c1OCC`, for which the inhibition is active: 69%. `CCCOc1ccc(C(=O)Nc2ccc(Cl)c(-c3nc4ncccc4o3)c2)cc1`: the inhibition stood at 7.23%. In the case of `O=C(CSc1nc(-c2cccs2)nc2cc(=O)[nH]n12)Nc1ccccc1F` it was 9.72%; in that of `COc1ccccc1N1CCN(CCC(=O)Nc2ccc3c(c2)OCO3)CC1`, active: 79.7%; in that of `CCOc1ccc(CCNC(=O)CSc2cc(=O)n(C)c3cc(Cl)ccc23)cc1OCC`, 9.29%.

On to `Cc1c(-c2nsc(NC(=O)c3cccc(Cl)c3)n2)nnn1-c1ccccc1C(F)(F)F`, for which the inhibition is -6.27%. For `COc1ccccc1N1CCN(CC(O)COc2c(OC)cccc2OC)CC1` (stereo unspecified), the inhibition is active: 123%. On to `CCOc1ccc(CCNC(=O)CCc2c(C)nc3cc(-c4ccccc4OC)nn3c2C)cc1`, for which the inhibition came to 1.59%. For the molecule `CSc1ccc(CCNC(=O)CN2C(=O)c3cccnc3Oc3ccc(Cl)cc32)cc1`, the inhibition is -6.66%. In the case of `Cc1nn(-c2ccccc2)c(N)c1C(O)(CSc1nccn1C)C(F)(F)F` (stereo unspecified) it was active: 37.5%; in that of `COc1ccc(NC(=O)Cn2cnc3ccc(S(=O)(=O)N4CCC(C)CC4)cc3c2=O)cc1OC`, 1.15%; in that of `CCOc1ccc(-c2nc(SCC(=O)NC3CCCC3)c(-c3ccccc3)[nH]2)cc1OC`, 11.2%. With `CCOc1ccc(NC(=O)/C=C\C(=O)N(c2ccc(C(C)C)cc2)C(C(=O)NCc2ccco2)c2ccc(F)cc2)cc1` (stereo unspecified) the figure was 8.39%; with `COc1ccc(-c2cnn3c(C)cc(C)nc23)cc1OC`, 2.42%. As for `COc1ccc(CNCCC(c2ccccc2)c2ccc3c(c2)OCO3)cc1` (stereo unspecified), the inhibition was -18%. On to `CCCC1=Nc2cc(C(=O)NCCc3ccccc3)ccc2Sc2ccc(C)cc21`, for which the inhibition is 7.15%. Turning to `COc1ccccc1NC(=O)NCc1cccn1Cc1ccccc1`, the inhibition was found to be 14.7%. In the case of `COc1cccc(OC)c1C(=O)NCCSC1CCCCC1`, the inhibition is active: 40.5%. `Cc1cc(Br)ccc1NC(=O)c1ccc(NS(=O)(=O)c2c(C)noc2C)cc1`: the inhibition turned out to be 8.77%. Take `Cc1ccc2c(c1)N(C(=O)Nc1cccc(C)c1C)CCO2`: the inhibition was 2.92%. With `CC1CCC(N2CC(=O)N(C3CCCCC3)C(c3ccc(F)cc3)C2=O)CC1` (stereo unspecified), the inhibition is -0.98%. With `CS(=O)(=O)N1CCc2cc(C(=O)N3CCN(c4ccccc4)CC3)ccc21` the figure was -0.321%; with `CCCc1nnc(NC(=O)c2cc(=O)c3cc(Cl)ccc3o2)s1`, 12.4%. Regarding `CC1Cc2cc(S(=O)(=O)NCCc3ccccc3)ccc2N1C(=O)C1CCC1` (stereo unspecified), the inhibition was -8.4%. In the case of `CC(=O)c1cc(-c2ccccc2)n(CCC(=O)Nc2ccc(C)cc2C)c1C` it was -17.4%; in that of `COc1ccc(N2CC(NC(=O)c3cc4ccccc4o3)CC2=O)cc1` (stereo unspecified), -8.4%.

As a reminder, the inhibition is the drop in the measured response relative to a control, in per cent.
